Reference: publication PMC12136788
This is one part of the list.

T1: UNK ZnF1-3 (human, UniProt Q9C0B0 31-174)
T1 sequence: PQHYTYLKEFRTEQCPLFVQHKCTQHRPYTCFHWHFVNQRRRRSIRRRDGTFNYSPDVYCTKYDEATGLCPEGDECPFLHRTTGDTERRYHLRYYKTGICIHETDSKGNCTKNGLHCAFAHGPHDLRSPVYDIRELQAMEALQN

B1: chr3:149684035:149684036:-_ENSG00000070087_ENST00000452853|hu_mus|FALSE|FALSE (ssRNA)
RNA: GGGAGUUCUACAGUCCGACGAUCAGUUCAUAUGUUUUCUUGUUAAUUGUGCCUGCGUGGACACCUUCCUUUCCCAUGACUAUAACCAAUGCUGGAGUACACAAGGAAACAAAACAAAAAUGAACACAAUUAUUUAAGGGGAAGCAACAGAGGAUUGAGCAUCA
B2: chr6:74304526:74304527:-_ENSG00000119899_ENST00000355773|hu_hu|FALSE|FALSE (ssRNA)
RNA: GGGAGUUCUACAGUCCGACGAUCUAAUUAAGCAAAGGUAUCAGGAGGUCUGUUUCAGCUCAUUCCCUUUAGUAUGGCCCUAAAAAAUCAACAGAACUGUCCUACUUCAUGUUGCCCGACUAGCAGGCAGGUAUGUGAACCUAACAACAGAGGAUUGAGCAUCA
B3: chr3:184044699:184044700:+_ENSG00000114867_ENST00000411531|hu_hu|FALSE|FALSE (ssRNA)
RNA: GGGAGUUCUACAGUCCGACGAUCAUUAUCUGUGCUUUCUGUGGGUACCGCUUGUUGAAGGGCUGAGAAGCGAUUCAAAGUACUAGUAGCUGGGCGAGCAGCUUCUGAUGCUGCGUCUGAGGGCUUGGCUCCUGAGCCUCCGCUCAACAGAGGAUUGAGCAUCA
B4: chr12:105540249:105540250:+_ENSG00000136051_ENST00000332180|hu_hu|FALSE|FALSE (ssRNA)
RNA: GGGAGUUCUACAGUCCGACGAUCAUUGUUGAGAUUAUAGAGGUAUCGGGACACAAAUAUAUGAAUGUUUCUCAUAAUUUCUAAAACAUCAAGGCCCUGUUCCAAAGUCUGACUGGGAAGAUGUGCCUCUGUCAUAACCAGUCCCAACAGAGGAUUGAGCAUCA
B5: chr1:109605286:109605287:-_ENSG00000197780_ENST00000461096|hu_mus|hu_hu_hu_mus_True|58_98 (ssRNA)
RNA: GGGAGUUCUACAGUCCGACGAUCAAGUUUCAGAGUAUUCAGUGAUCACCUCUUUAAAUGCAAUUAUCCUUAUUAUAAACUAAGGGCAAUAAUAAUUUAAUACCGUAAGUGAACUACACACAAAGCCUGAACCGCGAAAAUGGUCAACAGAGGAUUGAGCAUCA
B6: chr3:10015032:10015033:+_ENSMUSG00000027533_ENSMUST00000029046|mus_mus|mus_mus_mus_hu_True|8_68 (ssRNA)
RNA: GGGAGUUCUACAGUCCGACGAUCGUUUUUACCAUCACAAGUGAUGAUACAAUCUGGCUUGGCCAUUGCAGCCAUCUUUCGCAAAGCUAUUCCCACUCCUAGCUCCUUCAUGUAUUCAUCAAAGCCUUGGCUUUCCACCAGGCGCAACAGAGGAUUGAGCAUCA

Target: T1, UNK ZnF1-3
Assay: nsRBNS (natural sequence RNA bind-n-seq); RBNS binding buffer (assumed for nsRBNS): 25 mM Tris pH 7.5, 150 mM KCl, 3 mM MgCl2, 0.01% Triton X-100, 500 ug/ml BSA, 20 U/ml SUPERase-In, 4 C; UNK is unkempt and MSI1 is Musashi-1; names of the RNAs are library labels; protein concentration not given here; high values mean tight binding

Row | Binder | binding signal
1 | B1 | 1.4 enrichment R
2 | B2 | 0.906 enrichment R
3 | B3 | 0.7 enrichment R
4 | B4 | 1.14 enrichment R
5 | B5 | 1.19 enrichment R
6 | B6 | 0.683 enrichment R
